Test results from patent publication US20100124555A1, “Compositions and Methods for Treating Pancreatic Tumors” (UNIVERSITE DE LA MEDITERRANEE, priority 2007, published 2010).

Assays:
NK cells = assay: NK cell activation (ADCC): CD107 mobilization and IFN-γ production by flow cytometry; format: cell-based, human; details: presence of SOJ-6 cells
Method: Thawed purified human NK cells stimulated or not overnight with 100 UI/mL of IL-2 were mixed with SOJ-6 or B221 cell lines at an effector/target ratio equal to 1, alone or in the presence of rec16D10 (30 μg/mL) or rituxan (10 μg/mL). Cells were then incubated for 4 hours at 37° C. in the presence of FITC conjugated anti-CD107 mAbs (Becton Dickinson) and monensin (sigma). After incubation, cells were washed in PBS containing 2 mM EDTA to disrupt cell conjugates and stained for extracellular markers (PC5 conjugated anti-CD56 and PC7 conjugated anti-CD3 purchased from Beckman coulter). Cells were then fixed and permeabilized using IntraPrep reagent (Beckman Coulter). […] Samples were then analysed on FACScanto (Becton Dickinson).
The chimeric antibody rec16D10 (30 μg/ml) was incubated with target SOJ-6 cells together with NK cells, with or without overnight treatment with IL-2 (100 U/ml) (FIG. 19). As a control, the Rituxan antibody (10 μg/ml) was used with target B221 cells. Effector cells and target cells were used at a ratio of: 1/1 (100000 NK/well). Thawed purified NK cells from two donors (NK1 and NK2) were incubated with the antibodies and target cells. Activation of NK cells was examined by virtue of CD 107 staining and IFN-γ secretion. […] Under similar conditions, approximately 30% of NK1 and NK2 cells secreted IFN-γ (vs. less than 16% and 13% in the absence of antibody or with Rituxan in NK1 and NK2 cells, respectively) (FIG. 21).

[1] = test system: cell surface antigens of fixed SOJ-6 cells; assay: FACS cell surface binding stability on fixed SOJ-6 cells; parameters: species or system human; details: estimated from half-life assuming kon 5×10^5 to 5×10^6 M^−1s^−1
Source text: Taking in account that most of the antibodies that have been studied so far at Innate Pharma, have kon rate association constants ranging from 5×10^5 to 5×10^6 M^−1s^−1, one can estimate that the recombinant 16D10 antibody bivalent affinity is in the nanomolar order (e.g., 10 to 1 nanoM) which is compatible with the industrial development of a therapeutic antibody.

[2] = test system: 16D10 antigen on SOJ-6 cells; assay: Flow cytometry detection of antigen at the cell surface, SOJ-6; format: binding, human
Method: Detection of antigens at the surface of SOJ-6 and PANC-1 cells was carried out by indirect fluorescence under the following conditions: cells were released from culture plates by treatment with a non enzymatic dissociation liquid (Calbiochem) for 15 minutes at 37° C. All subsequent steps were carried out at 4° C. The cells were washed with phosphate buffered saline (PBS), fixed with 2% paraformaldehyde in PBS for 15 minutes, and washed with 1% BSA in PBS for 15 minutes. Antigens were exposed for 2 hours to specific antibodies, washed with PBS, and finally incubated for 45 minutes with appropriate FITC-labeled secondary antibodies. Cells were then washed, resuspended in isoflow buffer, and analyzed on Coulter FACSCalibur device.
Flow cytometry experiments were carried out to investigate whether the antigen recognized by 16D10 was found on the surface of cells. Results are shown in FIGS. 14 and 15, representing SOJ-6 and PANC-1 cells, respectively. […] In each case, 16D10 binding was compared to a negative control and a control mouse IgM (Sigma).

[3] = Tissue cross-reaction study (staining of healthy tissues); details: non-specific crossreactivity
Method: The staining specificity of the IgM 16D10 and chimeric IgG rec16D10 antibodies was assessed by examining their respective staining of various healthy tissues. […] Staining with the chimeric antibody reel 6D10, in contrast, was negative on each of these healthy tissues.

SOJ-6 cells = assay: Effect of antibodies on SOJ-6 cell proliferation (Example 11); format: cell-based, human
Method: The effects of the IgM antibody 16D10 and the chimeric antibody rec16D10 on the proliferation of SOJ-6 cells were examined. Cells were incubated in culture with no antibodies, with various amounts of 16D10 or rec16D10 antibodies, or with an irrelevant IgG antibody. Antibody 16D10 reduced cell proliferation by approximately 50% at either 25 or 50 μg/ml, while rec16D10 reduced proliferation by more than 20% and more than 35% at 25 and 50 μg/ml, respectively (FIG. 18).

B1: rec16D10: chimeric antibody comprising the variable domains of mouse 16D10 and the constant (Fc) domains of a human IgG1 antibody, produced in HEK293T cells (antibody)
heavy: QVQLQQSDAELVKPGASVKISCKASGYTFTDHAIHWVKQKPEQGLEWIGYISPGNDVIKFNEKFKGKATLTADKSSSTAYMQLNSLTSEDSAVYFCKRSEGGVFDYWGQGTTLTVSSESQSFPNVFPLVSCESPLSDKNLVAMGCLARDFLPSTISFTWNYQNNTEVIQGIRTFPTLRTGGKYLATSQVLLSPKSILEGSDEYLVCKIHYGGKNRDLHVPIPGTEPKSADKTH[omitted - human IgG1 Fc]
light: NIMMTQSPSSLAVSAGEKVTMSCKSSQSVLYSSNQKNFLAWYQQKPGQSPKLLIYWASTRESGVPDRFTGSGSGTDFTLTISSVQAEDLAVYYCHQYLSSYTFGGGTKLEIKRADAAPTVSIFPPSSEQLTSGGASVVCFLNNFYPKDINVKWKIDGSERQNGVLNSWTDQDSKDSTYSMSSTLTLTKDEYERHNSYTCEATHKTSTSPIVKSFNRNEC
**Q.** For B1, which “NK1 cells secreting IFN-γ” value (NK cells; donor NK1, IL-2 treated) is on record?
**A.** approximately 30%

**Q.** What about the “CD 107-positive staining of NK1 cells” value (NK cells; donor NK1, IL-2 treated, E/T 1/1, rec16D10 30 μg/ml, Rituxan 10 μg/ml) of the same molecule?
**A.** approximately 53%

**Q.** And the “NK2 cells secreting IFN-γ” value (NK cells; donor NK2, IL-2 treated)?
**A.** approximately 30%

**Q.** And the “CD 107-positive staining of NK2 cells” value (NK cells; donor NK2, IL-2 treated, E/T 1/1, rec16D10 30 μg/ml, Rituxan 10 μg/ml)?
**A.** ~45%

**Q.** What about the bivalent affinity [1] of the same molecule?
**A.** 10 to 1 nanoM

**Q.** And the “effect of trypsin incubation on binding to SOJ-6 cells” value ([2]; antibody incubated with trypsin)?
**A.** substantially decrease the binding

**Q.** What about the “binding to antigen on SOJ-6 cells” value ([2]; flow cytometry / FACS) of the same molecule?
**A.** activity was confirmed by FACS on SOJ-6 cells

**Q.** What about the “staining of healthy tissues (tonsils, salivary gland, peripheral nerve, eyes, bone marrow, ovary, oviduct, parathyroid, prostate, spleen, kidney, adrenals, testes, thymus, ureters, uterus, bladder)” value [3] of the same molecule?
**A.** negative

**Q.** What about the “reduction of SOJ-6 cell proliferation” value (SOJ-6 cells; 25 μg/ml) of the same molecule?
**A.** more than 20%

**Q.** And the “reduction of SOJ-6 cell proliferation” value (SOJ-6 cells; 50 μg/ml)?
**A.** more than 35%
